# Experimental data from the supplement of paper PMC8728848.
# The list shows a part of the results.
# Experiments:
# Assay in all cases: glycan array binding signal (z-score within array); higher = stronger binding
# Conditions in all cases: glycan notation: IUPAC condensed, linker removed
# [1] = target: Gal6S(b1-4)Glc
# Method in brief: (§1)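 The binding signal is a Z-score computed within each array. Data were drawn from 3228 arrays in the Consortium for Functional Glycomics database, restricted to those with a known protein sequence. Scores were averaged over arrays of the same protein sequence at different concentrations or buffers, and over linkers, and negative values can be taken as non-binding.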
# [2] = target: Gal6S(b1-4)Glc6S
# Method in brief: as §1
# [3] = target: Gal6S(b1-4)GlcNAc
# Method in brief: as §1
# [4] = target: GalNAc(a1-3)Gal
# Method in brief: as §1
# [5] = target: GalNAc(a1-3)GalNAc
# Method in brief: as §1
# [6] = target: GalNAc(b1-3)Gal(a1-4)Gal(b1-4)GlcNAc
# Method in brief: as §1
# [7] = target: GalNAc(b1-4)GlcNAc
# Method in brief: as §1
# [8] = target: Glc(a1-4)Glc
# Method in brief: as §1
# [9] = target: Glc(a1-6)Glc(a1-6)Glc
# Method in brief: as §1
# [10] = target: Glc(b1-4)Glc
# Method in brief: as §1
# [11] = target: Glc(b1-6)Glc
# Method in brief: as §1
# [12] = target: GlcA(b1-3)Gal
# Method in brief: as §1
# [13] = target: GlcA(b1-6)Gal
# Method in brief: as §1
# [14] = target: GlcNAc(a1-3)Gal(b1-4)GlcNAc
# Method in brief: as §1
# [15] = target: GlcNAc(a1-6)Gal(b1-4)GlcNAc
# Method in brief: as §1
# [16] = target: GlcNAc(b1-2)Gal(b1-3)GlcNAc
# Method in brief: as §1
# [17] = target: GlcNAc(b1-2)Man(a1-3)[GlcNAc(b1-2)Man(a1-6)]Man(b1-4)GlcNAc(b1-4)GlcNAc
# Method in brief: as §1
# [18] = target: GlcNAc(b1-3)Gal
# Method in brief: as §1
# [19] = target: GlcNAc(b1-3)Gal(b1-3)GalNAc
# Method in brief: as §1
# [20] = target: GlcNAc(b1-3)Gal(b1-4)Glc
# Method in brief: as §1
# [21] = target: GlcNAc(b1-3)Gal(b1-4)GlcNAc
# Method in brief: as §1
# [22] = target: GlcNAc(b1-3)Gal(b1-4)GlcNAc(b1-3)Gal(b1-4)GlcNAc
# Method in brief: as §1
# [23] = target: GlcNAc(b1-3)GalNAc
# Method in brief: as §1
# [24] = target: GlcNAc(b1-3)[GlcNAc(b1-4)][GlcNAc(b1-6)]GlcNAc
# Method in brief: as §1
# [25] = target: GlcNAc(b1-3)[GlcNAc(b1-6)]Gal(b1-4)GlcNAc
# Method in brief: as §1
# [26] = target: GlcNAc(b1-3)[GlcNAc(b1-6)]GlcNAc
# Method in brief: as §1
# [27] = target: GlcNAc(b1-4)Gal(b1-4)GlcNAc
# Method in brief: as §1
# [28] = target: GlcNAc(b1-4)GlcNAc(b1-4)GlcNAc
# Method in brief: as §1
# [29] = target: GlcNAc(b1-4)GlcNAc(b1-4)GlcNAc(b1-4)GlcNAc(b1-4)GlcNAc
# Method in brief: as §1
# [30] = target: GlcNAc(b1-4)GlcNAc(b1-4)GlcNAc(b1-4)GlcNAc(b1-4)GlcNAc(b1-4)GlcNAc
# Method in brief: as §1
# [31] = target: GlcNAc(b1-4)[GlcNAc(b1-6)]GalNAc
# Method in brief: as §1
# [32] = target: GlcNAc(b1-6)Gal(b1-4)GlcNAc
# Method in brief: as §1
# [33] = target: GlcNAc(b1-6)GalNAc
# Method in brief: as §1
# [34] = target: Kdn(a2-3)Gal(b1-3)GlcNAc
# Method in brief: as §1
# [35] = target: Kdn(a2-3)Gal(b1-4)GlcNAc
# Method in brief: as §1
# [36] = target: Man(a1-2)Man(a1-2)Man(a1-3)Man
# Method in brief: as §1
# [37] = target: Man(a1-2)Man(a1-2)Man(a1-3)[Man(a1-2)Man(a1-3)[Man(a1-2)Man(a1-6)]Man(a1-6)]Man(b1-4)GlcNAc(b1-4)GlcNAc
# Method in brief: as §1
# [38] = target: Man(a1-2)Man(a1-2)Man(a1-3)[Man(a1-2)Man(a1-6)[Man(a1-3)]Man(a1-6)]Man(b1-4)GlcNAc(b1-4)GlcNAc
# Method in brief: as §1
# [39] = target: Man(a1-2)Man(a1-2)Man(a1-6)[Man(a1-3)]Man
# Method in brief: as §1
# [40] = target: Man(a1-2)Man(a1-3)Man
# Method in brief: as §1
# [41] = target: Man(a1-2)Man(a1-3)[Man(a1-2)Man(a1-6)]Man
# Method in brief: as §1
# [42] = target: Man(a1-2)Man(a1-3)[Man(a1-3)[Man(a1-6)]Man(a1-6)]Man(b1-4)GlcNAc(b1-4)GlcNAc
# Method in brief: as §1
# [43] = target: Man(a1-2)Man(a1-3)[Man(a1-6)]Man(a1-6)[Man(a1-2)Man(a1-3)]Man(b1-4)GlcNAc(b1-4)GlcNAc
# Method in brief: as §1
# [44] = target: Man(a1-3)[Man(a1-6)]Man
# Method in brief: as §1
# [45] = target: Man(a1-3)[Man(a1-6)]Man(a1-6)[Man(a1-3)]Man(b1-4)GlcNAc(b1-4)GlcNAc
# Method in brief: as §1
binder,measurement,setting,value
Alpha-agglutinin (Saccharomyces cerevisiae) (protein) MFTFLKIILWLFSLALASAININDITFSNLEITPLTANKQPDQGWTATFDFSIADASSIREGDEFTLSMPHVYRIKLLNSSQTATISLADGTEAFKCYVSQQAAYLYENTTFTCTAQNDLSSYNTIDGSITFSLNFSDGGSSYEYELENAKFFKSGPMLVKLGNQMSDVVNFDPAAFTENVFHSGRSTGYGSFESYHLGMYCPNGYFLGGTEKIDYDSSNNNVDLDCSSVQVYSSNDFNDWWFPQSYNDTNADVTCFGSNLWITLDEKLYDGEMLWVNALQSLPANVNTIDHALEFQYTCLDTIANTTYATQFSTTREFIVYQGR,glycan array binding signal (z-score),[1],-0.097
same,glycan array binding signal (z-score),[2],0.122
same,glycan array binding signal (z-score),[3],-0.19
same,glycan array binding signal (z-score),[4],-0.162
same,glycan array binding signal (z-score),[5],0.033
same,glycan array binding signal (z-score),[6],-0.237
same,glycan array binding signal (z-score),[7],-0.18
same,glycan array binding signal (z-score),[8],-0.186
same,glycan array binding signal (z-score),[9],-0.226
same,glycan array binding signal (z-score),[10],-0.248
same,glycan array binding signal (z-score),[11],-0.204
same,glycan array binding signal (z-score),[12],-0.174
same,glycan array binding signal (z-score),[13],-0.245
same,glycan array binding signal (z-score),[14],0.511
same,glycan array binding signal (z-score),[15],-0.27
same,glycan array binding signal (z-score),[16],-0.133
same,glycan array binding signal (z-score),[17],-0.208
same,glycan array binding signal (z-score),[18],-0.256
same,glycan array binding signal (z-score),[19],-0.257
same,glycan array binding signal (z-score),[20],-0.231
same,glycan array binding signal (z-score),[21],-0.21
same,glycan array binding signal (z-score),[22],-0.21
same,glycan array binding signal (z-score),[23],-0.265
same,glycan array binding signal (z-score),[24],0.203
same,glycan array binding signal (z-score),[25],-0.255
same,glycan array binding signal (z-score),[26],-0.234
same,glycan array binding signal (z-score),[27],-0.194
same,glycan array binding signal (z-score),[28],-0.242
same,glycan array binding signal (z-score),[29],-0.236
same,glycan array binding signal (z-score),[30],-0.142
same,glycan array binding signal (z-score),[31],5.52
same,glycan array binding signal (z-score),[32],-0.236
same,glycan array binding signal (z-score),[33],-0.045
same,glycan array binding signal (z-score),[34],-0.218
same,glycan array binding signal (z-score),[35],-0.207
same,glycan array binding signal (z-score),[36],-0.245
same,glycan array binding signal (z-score),[37],-0.201
same,glycan array binding signal (z-score),[38],-0.263
same,glycan array binding signal (z-score),[39],-0.25
same,glycan array binding signal (z-score),[40],-0.252
same,glycan array binding signal (z-score),[41],-0.245
same,glycan array binding signal (z-score),[42],-0.251
same,glycan array binding signal (z-score),[43],-0.237
same,glycan array binding signal (z-score),[44],-0.258
same,glycan array binding signal (z-score),[45],-0.254
